Measurements as given in PMC5892938.
This is one part of the list. The source does not settle which construct or isoform was used.

Molecular target: GST-SBP-ILF3 (Homo sapiens) (UniProt Q12906)
Test: targeted RNA Bind-n-Seq
Conditions: RBNS binding buffer: 25 mM Tris pH 7.5, 150 mM KCl, 3 mM MgCl2, 0.1% Tween, 0.5 mg/mL BSA, 1 mM DTT; 27 nM protein, 750 pM RNA pool; temperature not stated; high values mean tight binding; sequences stand for … in GGGUAAAAGCGAGGUGAA…CGGGACAAGUAUUAUGGG

Row | Sequence | binding signal (log2 fold change)
1 | UUUUUUUUUUGAGACCGAAUCGGUUUCCAG [tttttgagapaired] | 0.44
2 | UUUUUUUUUUGAGAGCGGUACGUUCUCCAG [tttttgagapaired] | 0.343
3 | GUGGUGUGUGUUGGCGCCUAACACACAUCG [gtspaired] | -0.429
4 | UUUUUUUUUUGAGACUGGCACAGUCUUCUG [tttttgagapaired] | 0.784
5 | GUGUGUUGUGUUGGACUCUAACACAACGCA [gtspaired] | -0.14
6 | UUUUUUUUUUGAGACCGGGUCGGUCUCCUG [tttttgagapaired] | 0.28
7 | UUUUUUUUUUGAGACUGCUGCAGUCUCCUA [tttttgagapaired] | 0.641
8 | UUUUUUUUUUGAGAGGGCACCCCUCUCCAG [tttttgagapaired] | 0.746
9 | UUUUUUUUUUGAGAUGGUGGCCAUUUCCAG [tttttgagapaired] | 0.712
10 | GUGUGGUGUGUUGGCUCCUAACACAUCACA [gtspaired] | -0.932
11 | UUUUUUUUUUGAGAAGGAAUCCUUCUCCUA [tttttgagapaired] | 0.0537
12 | UUUUUUUUUUGAGAGGGGUGCCCUUUCCGG [tttttgagapaired] | 0.761
13 | GUGUGUUGUGUUGGUGUCUAACACAGCGCA [gtspaired] | -0.569
14 | GUGGUUGGUGUUGGAAUCUAACACCAGCCG [gtspaired] | -0.675
15 | UUUUUUUUUUGAGACGGAGACCGUCUCCGG [tttttgagapaired] | 0.481
16 | UUUUUUUUUUGAGAUGGAAUCCGUCUCCAG [tttttgagapaired] | 0.0723
17 | UUUUUUUUUUGAGAGUGUAACACUCUCCUA [tttttgagapaired] | -0.0263
18 | UUUUUUUUUUGAGACGGUGGCCGUUUCCAG [tttttgagapaired] | 0.974
19 | GUUGGUGGUGUUGGUCUCUAACACCACCGA [gtspaired] | -0.426
20 | UUUUUUUUUUGAGAUCGGUCCGAUCUCCUG [tttttgagapaired] | 0.679
21 | GUGGUUGGUGUUGGUACCUAACACCGACCG [gtspaired] | -0.397
22 | GGUUGUUGUGUUGGCCUCUAACACAGCAAC [gtspaired] | -0.611

Row | Sequence | binding signal (log2 fold change)
23 | GUGUUGUGUGUUGGACCCUAACACACAGCA [gtspaired] | -0.212
24 | UUUUUUUUUUGAGACGGAGGCCGUCUCCAG [tttttgagapaired] | 0.513
25 | UUUUUUUUUUGAGAGUGAUGCACUCUCCUG [tttttgagapaired] | 0.416
26 | UUUUUUUUUUGAGAGUGAUCCACUCUCCGG [tttttgagapaired] | 0.0329
27 | GUGUGUGGUGUUGGUUCCUAACACCGCAUA [gtspaired] | -0.491
28 | GGUGUGUGUGUUGGUAUCUAACACAUAUAC [gtspaired] | -0.631
29 | UUCUCUCUUCCUCCGUGGGAGGAGGGGAGA [ctspaired] | -0.471
30 | UUUUUUUUUUGAGAACGGAACGUUCUCCAG [tttttgagapaired] | -0.0938
31 | UUCUUCCUUCCUCCGCGGGAGGAGGGGAGA [ctspaired] | -0.592
32 | UUUUUUUUUUGAGAUGGAAGCCAUCUUCUA [tttttgagapaired] | -0.0872
33 | UUUUUUUUUUGAGAUGGGGACCAUCUCCUA [tttttgagapaired] | 0.219
34 | UUUUUUUUUUGAGAUGGCGUCCAUCUCCGG [tttttgagapaired] | 0.706
35 | GUGUGUUGUGUUGGCUUCUAACACAGCACG [gtspaired] | -0.827
36 | UUUUUUUUUUGAGAGGGUAACCCUCUUCUA [tttttgagapaired] | -0.048
37 | GUUGGUGGUGUUGGCGUCUAACACCGCCGA [gtspaired] | -0.417
38 | GGUGGUUGUGUUGGUACCUAACACAGCCGC [gtspaired] | -0.471
39 | GUGGUUGGUGUUGGAUCCUAACACCAGCCG [gtspaired] | -0.502
40 | GGUGGUUGUGUUGGAACCUAACACAGCUAC [gtspaired] | -0.855
41 | UUUUUUUUUUGAGACCGAGUCGGUUUCCUA [tttttgagapaired] | 0.62
42 | UUUUUUUUUUGAGAUCGGGUCGAUCUUCUG [tttttgagapaired] | 0.422
43 | GUUGUGUGUGUUGGUCCCUAACACACGCGA [gtspaired] | -0.469
44 | GUUGUGUGUGUUGGUUCCUAACACACGCGA [gtspaired] | -0.558

Row | Sequence | binding signal (log2 fold change)
45 | UUUUUUUUUUGAGAACGUGACGUUCUCCAG [tttttgagapaired] | 0.31
46 | UUUUUUUUUUGAGAUGGCUGCCAUCUCCAG [tttttgagapaired] | 0.531
47 | UUUUUUUUUUGAGACGGUUUCUGUCUCCUA [tttttgagapaired] | 0.226
48 | GUGUGGUGUGUUGGCCCCUAACACACCAUA [gtspaired] | -0.146
49 | GUUGUGUGUGUUGGUGUCUAACACACGCAG [gtspaired] | -0.621
50 | UUCUCCUCUCCUCCGCUGGAGGGGAGGGGA [ctspaired] | -0.616
51 | UUUUUUUUUUGAGACGGAGUCCGUUUCCUG [tttttgagapaired] | 0.653
52 | UUUUUUUUUUGAGAUCGGUCCGAUCUCCGG [tttttgagapaired] | 0.293
53 | UUUUUUUUUUGAGAGCGUGACGUUCUUCUG [tttttgagapaired] | 0.606
54 | GUGUGUGGUGUUGGUCUCUAACACCGCACG [gtspaired] | -0.741
55 | UUCCUCUCUCCUCCAAGGGAGGGGGGAGGA [ctspaired] | -0.0694
56 | GGUUGGUGUGUUGGUGUCUAACACAUCAGC [gtspaired] | -0.603
57 | UUUUUUUUUUGAGACGGUGGCCGUUUCCUA [tttttgagapaired] | 0.767
58 | UUUUUUUUUUGAGACGGUGUCUGUCUCCAG [tttttgagapaired] | 0.926
59 | UUCCUCUCUCCUCCUAGGGAGGGGGGAGGA [ctspaired] | -0.29
60 | UUUUUUUUUUGAGAGGGAUCCCCUCUUCUA [tttttgagapaired] | -0.0409
61 | GUGUGUUGUGUUGGAACCUAACACAACGCG [gtspaired] | -0.699
62 | UUUUUUUUUUGAGAGUGACCCACUCUCCAG [tttttgagapaired] | 0.867
63 | UUUUUUUUUUGAGAGCGAACCGCUCUUCUA [tttttgagapaired] | -0.252
64 | UUCCUUCUUCCUCCGCUGGAGGGAGAGGGA [ctspaired] | -0.44
65 | UUUUUUUUUUGAGACGGACUCCGUCUCCUA [tttttgagapaired] | 0.215
66 | GUGGUGUGUGUUGGCGUCUAACACAUACCG [gtspaired] | -0.663
